In PubChem BioAssay AID1963576 (National Center for Advancing Translational Sciences (NCATS), 2024):
Out of some 46,000 compounds screened, about 60 (0.1%) were called active. Roughly 3% stayed inconclusive and do not appear here. Calls follow the shape of the dose curve; as a rule, active = well fitted inhibition curve with a large enough effect; inconclusive = small, poorly fitted or top-dose-only effect; inactive = no such curve, though single readings can be large or run the other way. This is one part of the list.

experiment: Primary qHTS assay for Inhibitors of ovarian cancer metastasis using an organotypic tumor microenvironment (TME) model.; also: nearly all actives have a fitted effect of over 65% in size;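 as to activity change, negative = inhibition: plate controls were DMSO wells for no effect and tomatine positive control wells for full effect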; conditions: SKOV3ip1-GFP adhesion/invasion on 3D omental model, fluorescence; series mostly up to 45.8 µM; activity change, negative = inhibition: at the top concentration
Procedure, shortened: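 A 3D layer of primary human omental fibroblasts, mesothelial cells, fibronectin and collagen I, grown 48 hr, received SKOV3ip1-GFP cells in serum-free medium plus compounds at 0.36-46 umol/L. After 2 hr RT and 16 hr 37 C, fixed adherent GFP cells were counted; normalized to DMSO and tomatine.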

Activity change, negative = inhibition, inactive:
COc1ccc(-c2nc(C(=O)Nc3cccc(C(C)=O)c3)nn2-c2ccccc2Cl)cc1 -17.4%
CCCCCn1c(CCCNC(=O)c2ccc(Cl)cc2)nc2ccccc21 2.44%
COC(=O)C1=C(C)N(C(C)C)C(=O)C1(NC(=O)c1ccccc1OC)C(F)(F)F (stereo unspecified) -7.1%
COc1ccccc1CNC(=O)C(=O)NCC(c1ccco1)S(=O)(=O)c1ccc(C)cc1 (stereo unspecified) -4.16%
CCOC(=O)[C@H](CCc1ccccc1)N[C@H]1CS[C@H](c2cccs2)CN(CC(=O)O)C1=O -28.1%
Cc1ccccc1CCNC(=O)c1ccc(Cn2c(=O)c3cccn3c3cccnc32)cc1 -7.46%
CCC(=O)N1CCc2cc(Br)cc(S(=O)(=O)Nc3ccccc3C(=O)OC)c21 5.85%
O=C(CSc1nccn1Cc1ccc(Cl)cc1)Nc1nc2ccccc2s1 -9.18%
COCCCNC(=O)c1cc2c(-c3cccc(OC)c3)nn(C)c2s1 -0.939%
CCOc1cc(-c2nc(-c3ccc(-c4ccccc4)nc3OCC)no2)cc(OCC)c1OCC 7.81%
COc1cc(OC)c(NC(=O)c2cnn(-c3ccccc3)c2-n2cccc2)cc1Cl -2.87%
CCCc1cc(=O)n2[nH]c(NCc3c(F)cccc3Cl)nc2n1 -8.64%
CCOc1ccc(OCC(=O)Nc2ccc(S(=O)(=O)Nc3cc(C)on3)cc2)cc1 7.48%
COc1cc(CN(C(=O)COc2ccc(F)cc2)c2ccccn2)cc(OC)c1OC 3.18%
Cc1ccc(C)c(N2CCN(C(=O)c3cc(C)nc4c3c(C)nn4-c3ccccc3)CC2)c1 -5.49%
Cn1c(=O)c2sccc2n2c(CCCC(=O)Nc3ccc(Oc4ccccc4)cc3)nnc12 1.7%
COc1ccc(N2CCN(S(=O)(=O)c3ccc4c(c3)C(C(C)C)C(=O)N4)CC2)cc1 (stereo unspecified) -1.7%
Cc1nc2cc(-c3cccc(F)c3)nn2c(C)c1CCC(=O)NCCc1ccccc1 -1.32%
COc1ccc(F)c(F)c1C(=O)c1cnc(NC2CCN(S(C)(=O)=O)CC2)nc1N 48.5%
CCn1c(CNC(=O)c2ccc(OC)cc2)nnc1SCC(=O)Nc1cc(C)ccc1C -4.35%
Cn1c(/C(C#N)=C/c2ccccc2Br)nc2ccccc21 -7.61%
Cc1sc2c(c1C)c(=O)n(CCc1ccccc1)c(=O)n2Cc1ccc(C(C)(C)C)cc1 2.39%
COc1ccc(S(=O)(=O)N2Cc3ccccc3CC2C(=O)Nc2cc(Cl)ccc2Cl)cc1 (stereo unspecified) -1.06%
CCOCN(C(=O)Cn1c(COC)nc2ccccc21)c1c(C)cccc1CC -2.09%
COc1ccc(Cl)cc1NC(=O)CSc1nccn1-c1ccc(Cl)cc1 -1.63%
COc1ccccc1C(=O)NCc1nc2cccnc2n1Cc1ccc(F)cc1 -4.47%
CCc1c(C)c2ccc(O)c(CN3CCN(c4ccc(F)cc4)CC3)c2oc1=O 2.14%
CCc1cccc(NS(=O)(=O)c2ccc3c(c2)CC(C)N3C(=O)C2CC2)c1 (stereo unspecified) 9.19%
Cc1cccc(NC(=O)CSC2=Nc3ccccc3C3=NC(CC(=O)NCc4cccs4)C(=O)N23)c1 (stereo unspecified) -1.9%
COc1ccc(C(=O)NCCn2cc(SCc3ccc(C(F)(F)F)cc3)c3ccccc32)cc1OC 3.06%
COc1ccc(CNC(=O)CCCn2nc(C)n3c(cc4sccc43)c2=O)cc1 -2%
O=C(Nc1ccc2c(c1)CCCN2C(=O)c1cccs1)c1ccc(F)c(F)c1 -7.01%
COc1ccc(C(=O)c2cn(Cc3ccccc3F)c3cc4c(cc3c2=O)OCCO4)cc1OC -4.33%
CCOC(=O)c1cnc2ccc(Br)cc2c1NCCN1CCOCC1 54.4%
CCOC(=O)COc1ccc(CC)cc1C(=O)c1ccn2nc(-c3ccc(F)cc3)cc2n1 8.27%
COc1ccc(-c2noc(CC(=O)N(C)c3cccc(C)c3)n2)cc1 -4.9%
Cc1ccc(NC(=O)CN2C=NS(=O)(=O)c3ccccc32)cc1 -1.64%
Cc1ccc(CCNC(=O)Cn2c(-c3cccs3)cc3ccccc32)cc1 -19.3%
Cc1cccc(CNC(=O)c2cc3cc(S(=O)(=O)N4CCCCC4)ccc3n2C)c1 -3.19%
O=C(Nc1ccc(C(=O)OCc2cc(=O)n3nc(C4CC4)sc3n2)cc1)c1ccccc1 -3.33%
Cc1ccc(Cl)cc1N1CCN(C(=O)CCS(=O)(=O)c2cc(Br)cc3c2N(C(=O)C2CC2)CC3)CC1 -2.86%
COc1ccc(NC(=O)CSc2oc(-c3cccs3)nc2S(=O)(=O)c2ccccc2)c(OC)c1 10.4%
CCc1ccc(S(=O)(=O)c2cn(Cc3ccccc3)c3cc(N4CCCC4)c(F)cc3c2=O)cc1 -17.6%
COc1cc(NC(=O)Cc2c(C(=O)O)c(C)cn2C)cc(OC)c1 0.162%
Cc1ccc2c(c1)N(C(=O)N1CCC(C(=O)NC3CCCCCC3)CC1)CC(C)O2 (stereo unspecified) -8.51%
Cc1cc(C)cc(OCc2ccc(C(=O)Nc3ccccc3F)o2)c1 0.885%

outcome, inactive:
CCc1ccc(NC(=O)c2cc(S(=O)(=O)N3CCCC(C)C3)cn2C)cc1 (stereo unspecified)
COc1ccc(N2CCN(C(=O)c3cc4c(=O)n(Cc5ccco5)ccc4nc3C)CC2)cc1
O=C(NCc1ccccc1Cl)c1ccccc1NC(=O)c1nsc2ccccc12
CCc1nn(CC(=O)NCCc2ccc(SC)cc2)c(=O)c2cc3sccc3n12
COc1cc(NC(=O)CCN2CCN(CCO)CC2)cc(OC)c1
Cc1ccc(NC(=O)c2ccc(=O)n(CC(=O)Nc3ccccc3)n2)cc1
CCOC(=O)COc1ccc(-c2nnn(CC(=O)Nc3ccccc3)n2)cc1
Cc1ccc(C)c(NC(=O)C2CCN(S(=O)(=O)c3c(C)noc3/C=C/c3cccs3)CC2)c1
COc1cccc(CNC(=O)C2CCCN(S(=O)(=O)N(C)c3ccc(F)cc3)C2)c1OC (stereo unspecified)
COCCn1c(C)cc(O)c(C(c2ccccc2OC)N2CCN(c3ccccc3)CC2)c1=O (stereo unspecified)
COc1ccccc1/C=C/c1nc(C#N)c(NC2CCCCC2)o1
COc1ccc(Cl)cc1S(=O)(=O)Nc1ccc2[nH]c(=O)[nH]c2c1
Cc1ccc(N2CC(NC(=O)c3ccccc3C(F)(F)F)CC2=O)cc1C (stereo unspecified)
COc1ccc(/C=C/C(=O)Nc2sc3c(c2C(N)=O)CCC(C)C3)cc1OC (stereo unspecified)
CCOc1ccc(C2C(=O)N(C3CCCCC3)CC(=O)N2C2CCCC2)cc1OC (stereo unspecified)
